From patent US11364242B2, “Treatment agents for inhibiting HIV and cancer in HIV infected patients” (UNIVERSITY OF MARYLAND, BALTIMORE, priority 2015, dated 2022)

How the values were obtained:
R5 HIV JRFL Env = assay: Cell-cell fusion assay, Env-expressing 293T effectors and primary CD4+ T targets; conditions: CD4 targets from two donors
R5 HIV (JRFL) = assay: Real-time PCR of early reverse transcription products and integrated HIV DNA in infected PBLs; format: cell-based; conditions: 16 hours, PBLs from two donors
Protocol: Activated PBLs were infected with R5 and X4 HIV strains using a MOI of 0.01. Infected cells were cultured in the presence of IL-2 and different concentrations of INK128. Cell aliquots were collected at 16 and 72 hours for analyses of early products of reverse transcription and of integration, respectively, by real time PCR. Detection of early products of reverse transcription was done with primers specific for the R/U5 region (60). For detection of integrated HIV DNA, a real-time nested Alu-HIV PCR assay was used as previously described (61, 62), with the modifications described herein.
DNA was isolated using Miniblood kit (Qiagen™). PCR amplification was performed using Quantitect SYBR Green™ PCR Kit (Qiagen™) in a LightCycler™ (Biorad™). Detection of early products of reverse transcription was done in reactions containing 100 ng of DNA and the primer pair 5′-[…]-3′ (SEQ ID NO. 1) and 5′-[…]-3′ (SEQ ID NO. 2) (R/U5 region) (60). […] Amplified products were analyzed by denaturation/renaturation to verify the specific Tm. The PCR cycle at which the signal entered the exponential range was used for quantification, and HIV copy numbers were corrected for those of α-tubulin. […] As a standard curve for relative quantification of integrated DNA, the Alu-gag was first run using serial dilutions of DNA isolated from HIV infected PBLs (diluted in HIV-negative DNA). […]

Compound: CC(C)n1nc(-c2ccc3oc(N)nc3c2)c2c(N)ncnc21 [INK128, 5-(4-amino-1-propan-2-ylpyrazolo[3,4-d]pyrimidin-3-yl)-1,3-benzoxazol-2-amine]
- fusion of CD4+T target cells with Env-expressing cells (R5 HIV JRFL Env): inhibited fusion
- early products of reverse transcription (R/U5 transcripts) (R5 HIV (JRFL)): decreased levels
